Paper PMC4336329 (PLoS ONE, 2015)
Among all 310,000 compounds or so, about 2,200 (0.71%) showed an effect of 50% or more. Effects have a minus sign here. Some of the results follow.

biological target: human ether-à-go-go-related gene (hERG) potassium channel (human, UniProt Q12809); assay: primary screen, population patch clamp on CHO cells stably expressing hERG
Sequence (Q12809 whole entry, looked up): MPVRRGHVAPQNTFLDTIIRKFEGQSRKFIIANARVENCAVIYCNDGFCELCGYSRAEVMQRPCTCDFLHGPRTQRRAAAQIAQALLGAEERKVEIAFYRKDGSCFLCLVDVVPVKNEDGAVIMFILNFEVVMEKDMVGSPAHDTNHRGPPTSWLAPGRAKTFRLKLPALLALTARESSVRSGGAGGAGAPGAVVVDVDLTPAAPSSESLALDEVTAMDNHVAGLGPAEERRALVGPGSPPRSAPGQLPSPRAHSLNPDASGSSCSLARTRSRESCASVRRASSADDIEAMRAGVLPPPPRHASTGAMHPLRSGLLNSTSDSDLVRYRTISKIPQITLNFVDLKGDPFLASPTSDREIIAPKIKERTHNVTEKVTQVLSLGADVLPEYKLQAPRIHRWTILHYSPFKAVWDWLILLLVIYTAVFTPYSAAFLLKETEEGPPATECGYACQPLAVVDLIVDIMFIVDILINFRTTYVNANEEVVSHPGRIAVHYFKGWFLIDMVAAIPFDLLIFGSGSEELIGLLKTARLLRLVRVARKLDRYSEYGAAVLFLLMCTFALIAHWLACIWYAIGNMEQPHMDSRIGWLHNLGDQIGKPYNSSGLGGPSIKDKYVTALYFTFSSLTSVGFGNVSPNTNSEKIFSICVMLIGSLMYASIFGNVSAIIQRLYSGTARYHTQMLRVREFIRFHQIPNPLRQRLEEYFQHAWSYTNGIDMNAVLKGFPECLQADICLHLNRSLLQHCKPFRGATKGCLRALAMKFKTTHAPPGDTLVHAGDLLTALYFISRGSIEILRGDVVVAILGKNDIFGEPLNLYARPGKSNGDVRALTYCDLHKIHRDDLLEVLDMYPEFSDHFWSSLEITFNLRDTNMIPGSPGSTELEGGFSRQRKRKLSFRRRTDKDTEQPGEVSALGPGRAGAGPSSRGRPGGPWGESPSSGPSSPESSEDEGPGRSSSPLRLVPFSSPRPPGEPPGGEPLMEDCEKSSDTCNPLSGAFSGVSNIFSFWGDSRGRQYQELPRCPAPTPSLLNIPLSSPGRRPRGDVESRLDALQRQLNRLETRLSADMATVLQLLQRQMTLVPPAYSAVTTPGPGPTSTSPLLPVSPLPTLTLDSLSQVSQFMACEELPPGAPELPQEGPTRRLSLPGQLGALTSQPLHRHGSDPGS

SMILES	hERG current change (%, negative = inhibition) at 1uM [%]
CN(C(=O)CSc1nnc(-c2ccc(OC(F)F)cc2)n1N)C1CCS(=O)(=O)C1 (stereo not shown)	14.3
O=C1C(Cl)=C(Nc2ccc3cn[nH]c3c2)C(=O)c2ccccc21	18.1
NC(=O)c1ccc(NC(=O)COC(=O)CNC(=O)c2sc3ccccc3c2Cl)cc1	1.09
O=C(c1ccco1)N1CCN(S(=O)(=O)c2ccc3[nH]c(=O)oc3c2)CC1	-0.805
CSc1ccc(CN(C)C(C)C(=O)NCC2CCCCC2)cc1 (stereo not shown)	11.8
COC(=O)c1ccc(C)c(NC(=O)CCc2cc(OC)c(OC)c(OC)c2)c1	3.37
CN(C)CCCOC(=O)Cc1ccc(Cl)cc1.Cl	-11.2
CCN(CC)C1=NS(=O)(=O)c2cc([N+](=O)[O-])ccc21	-14.3
O=C(C1CC(=O)N(c2ccc3c(c2)OCCO3)C1)N1CCN(Cc2ccccc2)CC1 (stereo not shown)	0.891
NS(=O)(=O)c1cccc2cccnc12	10.6
O=C(NCc1ccco1)c1noc2c1CCCCC2	12.7
OCc1cn(-c2ccccc2)nc1-c1ccco1	15.1
CCOc1ccc(CCNC(=O)Cn2ccc3cc(S(=O)(=O)N4CCCC4)ccc32)cc1	16
Cc1c([N+](=O)[O-])cc(C(=O)Nc2ccc(Cc3ccncc3)cc2)cc1[N+](=O)[O-]	-9.28
CCCCCn1c(N)c(-c2nc3ccccc3o2)c2c([N+](=O)[O-])nn(CC)c(=O)c21	10.9
COc1ccccc1N1CCN(S(=O)(=O)c2cn(C)nc2C)CC1	7.06
CN(/N=C/c1cccc(Br)c1)C1=NS(=O)(=O)c2ccccc21	6.32
CCN=C1SC(CC(=O)NCc2ccccc2)C(=O)N1CC (stereo not shown)	11.9
CCn1cc([N+](=O)[O-])c(C(=O)Nc2ccc3c(c2)OCCO3)n1	-0.934
Cc1cc(NC(=O)CSc2nnc(Cc3ccccc3)o2)no1	13.3
COc1cccc(CN(C(=O)/C=C/c2ccco2)C2CCS(=O)(=O)C2)c1 (stereo not shown)	4.13
CCOC(=O)C1(Cc2cccc(OC)c2)CCCN(C(=O)CCSC)C1 (stereo not shown)	7.66

SMILES	hERG current change (%, negative = inhibition) at 1uM [%]
Cn1c(SCc2nn[nH]n2)nc2c1c(=O)n(Cc1ccccc1Cl)c(=O)n2C	4.36
Cc1cc(C)cc(NC(=S)NCCCN2CCOCC2)c1	-1.09
Cc1nc(C)n(CCNS(=O)(=O)c2ccccc2)n1	16.2
COc1cc(NC(=O)COc2cc(O)c3c(c2)OC(C)(C)CC3=O)cc(OC)c1	-7.91
C[C@@H](NCCc1ccc(O)cc1)[C@@H](O)c1ccc(O)cc1.Cl	12
COC(=O)c1ccc(COc2ccc3c(C)c(C)c(=O)oc3c2)o1	-0.357
COc1ccc(N(C(C)C(=O)NN=C2CCCCCCC2)S(C)(=O)=O)cc1 (stereo not shown)	3.39
CC(C)CN1CCN(Cc2ccc(CN3CCCCC3)s2)CC1CCO (stereo not shown)	15.3
CN(C)CCN1C(=O)C2C(C(=O)Nc3cc(Cl)cc(Cl)c3)C3C=CC2(O3)C1C(=O)NC1CCCCC1 (stereo not shown)	0.886
Cc1ccc(-c2nc(CN(CC3CCC3)CC3CCCO3)c(C)o2)s1 (stereo not shown)	-1.43
Cc1ccc(S(=O)(=O)NCC(=O)N(CC(=O)NCC2CCCO2)Cc2ccc(Cl)cc2)cc1 (stereo not shown)	-1.62
Cc1ccc(NC(=O)c2[nH]cnc2C(=O)NN)cc1	6.16
CCCCNc1nnc(SCC(=O)c2c(N)n(CCC)c(=O)[nH]c2=O)s1	6.04
CN1CCN(C(=O)CCCN2C(=O)/C(=C/c3ccc(Cl)cc3)SC2=S)CC1	2.73
CC(C)(C)C(C(=O)Oc1ccccc1)c1ccccc1 (stereo not shown)	14.1
CCn1c(NC(=O)c2ccco2)c(-c2ccccc2Cl)c(=O)c2ccccc21	20.9
NC(=O)C1CCN(C(=O)COc2ccc3c(c2)oc(=O)c2ccccc23)CC1	8.66
CCN1CCN(Cc2ccc(NC(=O)c3cc(NC(=O)c4cc(C)on4)cc(OC)c3)cc2C(F)(F)F)CC1.O=C(O)C(F)(F)F	4.37
Cc1ccc(-c2noc(CN(C(=O)c3cccc(Br)c3)C(C)C)n2)cc1	9.52
COc1ccc(N2CCN(Cc3nc4ccccc4c(=O)[nH]3)CC2)cc1	6
COc1ccccc1-c1c(C(F)(F)F)oc2cc(OCC(=O)Nc3ccccc3C(F)(F)F)ccc2c1=O	-4.75
CCOC(=O)c1nn(-c2ccccc2)c(=O)cc1SC(C)C	-10.4

SMILES	hERG current change (%, negative = inhibition) at 1uM [%]
Cc1ccc(NC(=O)c2ccccc2NS(=O)(=O)c2ccc(F)cc2)cc1S(=O)(=O)N1CCCCC1	3.9
Cc1cccc(Cc2cnc(NC(=O)CN3C(=O)/C(=C/c4ccccc4)SC3=S)s2)c1	11.5
O=C(N=Nc1c(O)[nH]c2ccccc12)c1ccc(CN2CCOCC2)cc1	13.7
CCc1ccc(-n2c(=O)c3c(C)c(C(=O)N(C)C)sc3n(CC(=O)NCc3ccco3)c2=O)cc1	1.24
Cc1sc(NC(=O)c2cccc(N3C(=O)CCC3=O)c2)nc1-c1ccccc1	6.31
Cc1cc(C)c(C#N)c(SCC(O)COc2ccc(Br)cc2)n1 (stereo not shown)	16.5
CCOCCCNS(=O)(=O)c1cc2[nH]c3c(c2cc1C)C(=O)CC(C)(C)C3	7.16
CCc1c(C)sc(NC(=O)c2noc(C)c2[N+](=O)[O-])c1C#N	6.75
CC(=O)c1cccc(NC(=O)C(C)OC(=O)Cc2n[nH]c(=O)c3ccccc23)c1 (stereo not shown)	16.5
COC1CCN(C(=O)c2ccc3oc(C(C)C)nc3c2)CC1	11.8
Cc1ccc(-c2cc(-c3ccccc3)cc(-c3ccccc3)[n+]2-c2ccccc2)cc1.[O-][Cl+3]([O-])([O-])[O-]	-80.4
N#Cc1cc(S(=O)(=O)c2ccc(F)cc2)c(N)[nH]c1=O	7.94
O=S(=O)(NCc1cccnc1)c1ccc(Cl)c2ccccc12	11.2
O=[N+]([O-])c1cccc(/C=C/c2nc(C=Nc3ccc4ccccc4c3)c(O)o2)c1	-4.85
N#CCN1C(=O)C2CCCN2c2ccc(S(=O)(=O)N3CCOCC3)cc21 (stereo not shown)	18.2
CC(=O)N1CCc2cc(S(=O)(=O)NCCC(=O)N3CCN(Cc4ccccc4)CC3)ccc21	-7.96
CN(C(=O)COC(=O)CNC(=O)C12CC3CC(CC(C3)C1)C2)c1ccccc1	-3.57
COc1ccc2nc(C)cc(Nc3ccc(N4CCN(C)CC4)cc3)c2c1	4.39
COc1ccc(Cc2nnc(Nc3ccc(C)cc3)o2)cc1OC	11.4
CCN(CC)c1ccc(C(=O)OCc2c(C)noc2C)cc1	12.9
CCOC(=O)c1[nH]c(Cc2[nH]c(C(=O)OCC)c(C)c2CCC(=O)OC)c(CCC(=O)OC)c1C	0.391
CC(=O)N(C1=C(N2CCOCC2)C(=O)c2ccccc2C1=O)c1ccc(C(=O)O)cc1	22.5

SMILES	hERG current change (%, negative = inhibition) at 1uM [%]
CC(C)Cc1nc(SCc2cccnc2)c2c(=O)n(C)c(=O)n(C)c2n1	9.57
C=CCNC(=O)NC(=O)COn1nnc2ccc(S(=O)(=O)N(C)C)cc21	14.7
COc1ccc(C(=O)CSc2nc3ccccc3n2CC(=O)c2ccccc2)cc1	1.75
Cc1ccc2[nH]cc(CCNC(=O)c3cccs3)c2c1	9.49
CCOc1ccc(C(C(=O)NC2CCCCC2)N(C(=O)c2csnn2)C2CC2)cc1 (stereo not shown)	13.2
Cc1ccccc1NC(=O)CNC(=O)Cc1cccc2ccccc12	14.5
COc1cc(OC)cc(-c2n[nH]c(=S)n2-c2cc(OC)ccc2OC)c1	-9.86
Cc1cc2c(cc1C)NC(=O)CC(C(F)(F)C(F)(F)C(F)(F)F)=N2	9.28
CCOc1cc(C(=O)Nc2ccc(S(=O)(=O)N3CCOCC3)cc2)cc(OCC)c1OCC	7.84
Cc1ccc(-n2nc3c(=O)n(CCCC(=O)NC4CCC(C)CC4)nc(C)c3c2C)cc1 (stereo not shown)	9.74
CC(C)(C)NS(=O)(=O)c1ccc(/C=C/C(=O)O)cc1	14.7
COc1ccc(Oc2nc(Oc3ccc(OC)cc3)nc(Oc3ccc(OC)cc3)n2)cc1	-7.77
O=C(Nc1nnc(C2CC2)s1)c1ccc(Cl)nc1	5.26
O=C(NCC1CCCO1)C(=O)NCC(c1ccco1)N1CCN(c2ccc(F)cc2)CC1 (stereo not shown)	1.42
O=C1CSC(c2ccccc2F)N1 (stereo not shown)	8.38
O=C(Nc1nccs1)c1ccc(N2CCOCC2)c([N+](=O)[O-])c1	9.81
CCOC(=O)C1(Cc2cccc(OC)c2)CCCN(C(=O)CNC(C)=O)C1 (stereo not shown)	15.1
COc1cccc(CN2CCCC(C(=O)N3CCCCC3)C2)c1.O=C(O)C(=O)O (stereo not shown)	14.1
CC(C)c1ccc(NC2CCCN(C(=O)C3=NN(C)C(=O)CC3)C2)cc1 (stereo not shown)	13.2
